Screen size: about 310,000 compounds; about 2,200 (0.71%) showed an effect of 50% or more. Effects have a minus sign here. Some of the results follow.
Target: human ether-à-go-go-related gene (hERG) potassium channel (human, UniProt Q12809)
Test: primary screen, population patch clamp on CHO cells stably expressing hERG

human ether-à-go-go-related gene (hERG) potassium channel, sequence (Q12809 whole entry, looked up): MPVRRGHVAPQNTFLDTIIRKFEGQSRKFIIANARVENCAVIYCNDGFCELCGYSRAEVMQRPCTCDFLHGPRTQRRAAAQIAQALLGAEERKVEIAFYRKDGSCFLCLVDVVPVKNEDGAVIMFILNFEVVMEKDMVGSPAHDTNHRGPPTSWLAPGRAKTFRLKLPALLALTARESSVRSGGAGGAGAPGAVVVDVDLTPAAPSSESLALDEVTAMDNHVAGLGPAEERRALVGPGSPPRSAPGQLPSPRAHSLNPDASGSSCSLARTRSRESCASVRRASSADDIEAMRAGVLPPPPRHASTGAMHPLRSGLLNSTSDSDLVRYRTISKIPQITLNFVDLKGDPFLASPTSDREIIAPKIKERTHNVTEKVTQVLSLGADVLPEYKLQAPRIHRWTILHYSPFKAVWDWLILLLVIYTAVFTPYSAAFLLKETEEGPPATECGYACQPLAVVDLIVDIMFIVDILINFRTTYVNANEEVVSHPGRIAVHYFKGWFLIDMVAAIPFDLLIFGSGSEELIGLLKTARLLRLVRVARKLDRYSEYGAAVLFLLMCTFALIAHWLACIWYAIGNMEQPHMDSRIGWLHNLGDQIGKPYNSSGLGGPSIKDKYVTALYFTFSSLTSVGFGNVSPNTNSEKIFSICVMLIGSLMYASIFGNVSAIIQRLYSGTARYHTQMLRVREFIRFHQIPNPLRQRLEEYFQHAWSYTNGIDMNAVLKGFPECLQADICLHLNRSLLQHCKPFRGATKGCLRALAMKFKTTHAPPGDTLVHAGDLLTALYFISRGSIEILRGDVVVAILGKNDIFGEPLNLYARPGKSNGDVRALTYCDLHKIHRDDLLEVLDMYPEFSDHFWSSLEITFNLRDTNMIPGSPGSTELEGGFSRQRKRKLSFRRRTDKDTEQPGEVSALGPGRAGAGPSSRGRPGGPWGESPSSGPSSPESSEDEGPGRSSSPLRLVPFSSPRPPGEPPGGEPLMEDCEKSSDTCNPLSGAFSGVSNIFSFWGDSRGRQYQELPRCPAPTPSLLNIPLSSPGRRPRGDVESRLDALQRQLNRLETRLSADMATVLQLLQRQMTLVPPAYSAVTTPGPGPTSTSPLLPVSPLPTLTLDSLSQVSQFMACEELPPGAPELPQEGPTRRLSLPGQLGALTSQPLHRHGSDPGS

| Compound | hERG current change (%, negative = inhibition) at 1uM |
| --- | --- |
| O=S(=O)(/C=C/c1ccccc1)NCc1ccccc1Cl | 6.31% |
| CCC(=O)Nc1ccc(Cl)c(NC(=S)NC(=O)COc2ccccc2)c1 | 1.17% |
| CCOc1ccc(N2CC(C(=O)Oc3ccccc3)CC2=O)cc1 (stereo not shown) | -7.71% |
| COC(=O)CC1=NN(c2ccc(OC)cc2)C(=O)C1 | 4.62% |
| CCN1CCC2(CC1)N=C(c1ccc(F)cc1)C(=S)N2 | 3.93% |
| CCN(CC(=O)Nc1c(F)cccc1F)C(=O)c1cccc(S(=O)(=O)N(C)c2ccccc2)c1 | 2.51% |
| Cc1onc(-c2ccccc2)c1C(=O)N1CCN(Cc2ccccc2)CC1 | 15.8% |
| Cc1cccc(NC(=O)/C(C#N)=C/c2ccccc2Cl)n1 | 18% |
| Cc1nnc(SC(C)C(=O)NCC2CCCO2)s1 (stereo not shown) | -0.626% |
| COC(=O)c1sccc1NC(=O)Nc1cccc([N+](=O)[O-])c1 | 3.03% |
| O=C(Nc1nnc(-c2ccc(Cl)cc2)o1)c1ccccc1Br | 7.85% |
| CCO[C@@H]1OC(C(=O)N2CCN(C)CC2)=C[C@H](C(C)(C)C)[C@H]1CCCO | -3.06% |
| COC(=O)c1ccc(OC)c(NS(=O)(=O)c2ccc(-n3cnnn3)cc2)c1 | -20.6% |
| Cc1cc(C(C)(C)C)cc(S(=O)(=O)Nc2cccc(C(=O)O)c2)c1C | 3.95% |
| COc1ccc(NC(=S)NNC(=O)c2nnn(-c3ccccc3)c2C)cc1 | 9.14% |
| CCSc1cnc(-c2ccccc2)n1CC.Cl | 8.15% |
| COC(=O)c1nn(-c2ccc(OC)cc2)c(=O)c2c(N)sc(C)c12 | 8.42% |
| CCOC(=O)/C(=C\c1cn(C)c2ccccc12)[N+](=O)[O-] | 17% |
| CC(NS(=O)(=O)c1ccc2c(c1)c(=O)n(C)c(=O)n2C)C(=O)NC1CCCCC1 (stereo not shown) | 4.91% |
| S=c1[nH]nc(-c2ccco2)n1-c1cccc2ccccc12 | 11.6% |
| COc1ccc(CN2CCC(C(=O)N3CCCC(C)C3)CC2)cc1OC.O=C(O)C(=O)O (stereo not shown) | -3.23% |
| CN1C(=S)SC(/[N+]([O-])=C\c2ccccc2F)C1(C)C (stereo not shown) | -0.308% |

| Compound | hERG current change (%, negative = inhibition) at 1uM |
| --- | --- |
| CCOC(=O)N1CCN(C(=O)c2cc3c(s2)-c2ccc(Cl)cc2S(=O)(=O)C3)CC1 | -5.47% |
| COc1ccc(/C=N/NC(=O)c2cccc([N+](=O)[O-])c2)cc1OC(=O)c1ccccc1 | 10.6% |
| O=C(Cn1cnc2c(nnn2Cc2ccc(F)cc2)c1=O)NCc1ccc(F)cc1 | 20.7% |
| CN1CCN(c2ccc(NC(=O)COc3ccc(Cl)cc3Cl)cc2)CC1 | 6.42% |
| O=S(=O)(NC1CCCCC1N1CCN(c2ccc(F)cc2)CC1)c1ccc(Cl)cc1 (stereo not shown) | 16.7% |
| C/C(=N\Nc1ccc(Cl)c(C(=O)O)c1)c1cccs1 | 7.94% |
| COc1ccc(NC(=O)CCNS(=O)(=O)c2cccc3nonc23)c(OC)c1 | 6.54% |
| CCOCC(=O)Nc1ccc([N+](=O)[O-])cc1C | 6.25% |
| COc1cc(NC(=O)c2cc(C(C)C)on2)cc(OC)c1OC | 10.9% |
| CC(=O)NC(CC(=O)Nc1cccc(S(=O)(=O)N2CCCC2)c1)c1ccccc1 (stereo not shown) | 9.27% |
| Cc1ccc(CNC(=O)CCn2cc(-c3ccc(F)cc3)nc2-c2ccncc2)cc1 | -10.5% |
| CS(=O)(=O)N(CC(=O)NCCSc1ccc(Cl)cc1)c1ccc2c(c1)OCO2 | 10.6% |
| O=C(O)CC(SCC(=O)NC1CCCc2ccccc21)C(=O)O (stereo not shown) | 7.22% |
| CCCc1nc2ccccc2c(=O)n1NC(=O)c1c(O)c2cccc3c2n(c1=O)CCC3 | 9.52% |
| O=C(COc1ccc(S(=O)(=O)N2CCc3ccccc32)cc1Cl)NCc1ccccn1 | 9.98% |
| O=C(c1cccc([N+](=O)[O-])c1)N1CCN(C(=O)c2ccco2)CC1 | 0.101% |
| CCC(=O)NCCc1cc2ccc(C)cc2[nH]c1=O | 10.7% |
| Nc1cccc2c1C(=O)N(C(=O)c1ccc(Cl)c(S(=O)(=O)N3CCCCCC3)c1)C2=O | 13.1% |
| COc1ccc(S(N)(=O)=O)cc1C(=O)NNC(=O)CN(C)S(=O)(=O)c1ccc(Cl)cc1 | 9.62% |
| O=c1cc(CN2CCc3ccccc32)nc2sccn12 | 1.13% |
| CCCCC1C2C(=O)N(c3ccccc3)C(=O)C2ON1c1ccccc1 (stereo not shown) | 8.86% |
| Cc1cc(C)nc(N2CCCC(C(=O)Nc3nnc(C)s3)C2)n1 (stereo not shown) | -2.18% |

| Compound | hERG current change (%, negative = inhibition) at 1uM |
| --- | --- |
| O=C(O)c1cc(N/N=C/c2c(O)ccc3ccccc23)ccc1Cl | 12.4% |
| COC(=O)[C@H](Cc1ccccc1)NC(=O)C1(OC(C)=O)CC(OC(C)=O)C(OC(C)=O)C(OC(C)=O)C1 (stereo partly shown) | 18.5% |
| CC(C)c1nn(-c2cc(C(F)(F)F)ccn2)c(=O)o1 | 16.5% |
| COc1ccc(NS(=O)(=O)c2ccc(/C=C/C(=O)O)cc2)cc1S(=O)(=O)N1CCOCC1 | 10.7% |
| Cc1ccccc1OCCSCc1nc2ccccc2[nH]1 | 3.23% |
| Cc1c(C(=O)NCCN2C(=O)S/C(=C\c3cccs3)C2=O)cccc1[N+](=O)[O-] | -1.11% |
| Cn1cnc2c(N3CCCCC3)nccc21 | 6.52% |
| Cc1ccc(NC(=O)Cc2noc3ccccc23)nc1 | -0.574% |
| CC(C)N=C(NC#N)SCc1ccccc1 | -5.91% |
| COc1cc(Cn2nnc3ccccc32)ccc1O | 11.4% |
| CCCN1CCC(=O)N([C@H](COc2ccccc2)c2ccccc2)CC1 | -76.5% |
| Cn1nc([N+](=O)[O-])c2c(-c3nc4ccccc4s3)c(N)n(C3CCCCC3)c2c1=O | 10.4% |
| CC(C)Oc1ccc(Cc2cnc(N)nc2N)cc1 | 1.46% |
| Cc1csc2nc(O)c(C(=O)NC3CCCCC3)c(=O)n12 | -0.665% |
| COc1ccc2nc(SC(C(=O)c3ccccc3)c3ccccc3)nc(C)c2c1 (stereo not shown) | 15.9% |
| CC(C)c1ccccc1NC(=S)NCc1ccccc1F | 12.8% |
| COCCNC(=O)c1onc(CSc2ccc(C)c(C)c2)c1C(=O)O | -8.37% |
| O=C(Cc1ccccc1)Nc1ccccc1C(=O)N1CCN(c2ccccc2)CC1 | 7.3% |
| CC(=O)N1CCc2c(sc(NC(=O)C3CCCCC3)c2C(N)=O)C1 | 1.91% |
| COc1ccc(OCCCCN2CCC(C)CC2)cc1.O=C(O)C(=O)O | 0.418% |
| CCCOc1ccc(N2CC(C(=O)Nc3ccc(N4CCOCC4)cc3)CC2=O)cc1 (stereo not shown) | 20.3% |
| Cc1cccc(C(=O)O)c1NC(=O)Cc1cccc2ccccc12 | 10.6% |

| Compound | hERG current change (%, negative = inhibition) at 1uM |
| --- | --- |
| Nc1nc2c([N+](=O)[O-])cccc2s1 | 13.9% |
| Cn1c(=O)c(C(=O)NCCc2ccccc2)c(O)c2ccccc21 | 18.8% |
| COc1ccc(CN(C)CC(=O)Nc2ccccc2-c2ccccc2)c(OC)c1 | 20.2% |
| COc1ccc2nc(NC(=O)/C=C/c3ccc4c(c3)OCO4)sc2c1 | 14% |
| O=c1[nH]cc(S(=O)(=O)N2CCN(c3cccc(C(F)(F)F)c3)CC2)c(=O)[nH]1 | 19% |
| CC(=C\c1ccccc1)/C=C1/SC(=O)N(CCCC(=O)Nc2ccc(C(=O)O)cc2)C1=O | 9.44% |
| COC(=O)C1=C(c2ccc(OC)c(OC)c2)C[C@@H]2CC[C@H]1N2C(=O)NC(C)C | 14.3% |
| CC(=O)C1=C(C)NC(SCc2cccc([N+](=O)[O-])c2)=C(C#N)C1c1ccco1 (stereo not shown) | 4.84% |
| COc1ccc(C(=O)N/C(=C\c2ccc3c(c2)OCO3)C(=O)N2CCOCC2)cc1 | 27.1% |
| O=C1CS(=O)CN1c1ccc(Oc2ccccc2)cc1 (stereo not shown) | 0.253% |
| O=C(Nn1c(-c2ccc(Br)cc2)nc2ccccc2c1=O)c1ccncc1 | 12.4% |
| Cc1cccn2c(=O)nc(SCC(=O)NC3CCCCC3)nc12 | 3.54% |
| CC1(C)Cc2c(sc(NC(=O)c3ccccc3)c2C(=O)O)CO1 | 13.8% |
| Cn1nnc2cc(NC(=O)NCc3ccc4c(c3)OCO4)ccc21 | 8.61% |
| COc1ccc(/C=N/NC(=O)c2ccc(Cl)cc2)cc1COC(C)=O | 7.95% |
| CCn1c(NC(C)=O)c(-c2ccccc2Cl)c(=O)c2ccccc21 | 18.4% |
| Clc1ccc(CSc2nncn2-c2ccccn2)cc1 | -2.4% |
| O=C(NCc1cccnc1)C1CC2c3ccccc3C1c1ccccc12 (stereo not shown) | 8.55% |
| COc1cc(C(=O)OCC2CC(c3ccccc3)=NO2)cc(OC)c1OC (stereo not shown) | -7.63% |
| O=C(Nc1cccc(Cl)c1)c1ccc(-n2cncn2)c([N+](=O)[O-])c1 | -4.82% |
| CC(=O)c1c(C)nc(-c2ccc(Cl)cc2)nc1N | 3.59% |
| O=C(COc1ccccc1F)Nc1ccccc1C(=O)NC1CC1 | -2.94% |

From PMC4336329 (PLoS ONE, 2015)
